{"source": "paper PMC6919601", "about": "“Identification of Plasmodium dipeptidyl aminopeptidase allosteric inhibitors by high throughput screening” (PLoS ONE, 2019)", "note": "About 230 (0.21%) of roughly 110,000 compounds showed an effect of 50% or more. Some of the results follow.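 Note: 30 min substrate incubation versus DMSO and 10 µM JCP410 controls.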"}
{"molecular_target": "DPAP1 (Plasmodium falciparum, UniProt Q8IIJ9)", "sequence (Q8IIJ9 whole entry, looked up)": "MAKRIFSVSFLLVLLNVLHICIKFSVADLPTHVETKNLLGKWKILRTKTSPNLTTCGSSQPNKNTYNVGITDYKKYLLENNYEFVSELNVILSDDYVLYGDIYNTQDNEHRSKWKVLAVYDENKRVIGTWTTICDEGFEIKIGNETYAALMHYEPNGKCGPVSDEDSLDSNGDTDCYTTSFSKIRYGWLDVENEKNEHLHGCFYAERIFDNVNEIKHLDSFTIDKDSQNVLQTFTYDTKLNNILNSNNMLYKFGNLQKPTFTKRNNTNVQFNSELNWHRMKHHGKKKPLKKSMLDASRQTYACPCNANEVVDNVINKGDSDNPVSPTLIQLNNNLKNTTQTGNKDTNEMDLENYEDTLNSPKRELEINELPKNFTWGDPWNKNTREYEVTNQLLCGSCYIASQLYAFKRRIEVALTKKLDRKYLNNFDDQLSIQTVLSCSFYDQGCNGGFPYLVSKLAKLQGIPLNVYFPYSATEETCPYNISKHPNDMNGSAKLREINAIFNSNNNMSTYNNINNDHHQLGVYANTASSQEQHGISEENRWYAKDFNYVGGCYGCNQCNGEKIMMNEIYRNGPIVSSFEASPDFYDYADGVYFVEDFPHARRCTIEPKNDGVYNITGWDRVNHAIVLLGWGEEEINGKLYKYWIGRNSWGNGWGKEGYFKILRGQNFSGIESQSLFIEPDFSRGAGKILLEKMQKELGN", "assay": "primary screen, percent inhibition; read by cleavage of a fluorogenic dipeptide substrate; higher = more effect of the substance", "design": "species or system P. falciparum D10 trophozoite lysates; single well", "units": {"% Inhibition @ 10 uM": "%"}}
{"smiles": "COc1cccc(C(=O)Nc2cc(OC)c(Cl)cc2OC)c1", "% Inhibition @ 10 uM": -3.39}
{"smiles": "COC(=O)c1cc(=O)n(Cc2ccc(OC)cc2)/c(=N/Cc2ccc(OC)cc2)s1", "% Inhibition @ 10 uM": -5.25}
{"smiles": "O=C(Nc1nnc(SCc2ccccc2)s1)c1cc2ccccc2c(=O)o1", "% Inhibition @ 10 uM": -9.16}
{"smiles": "COC(=O)c1cc(-c2c(C)nn(-c3ccccc3)c2C)[nH]n1", "% Inhibition @ 10 uM": 0.0289}
{"smiles": "O=C(CN1CCCC1)Nc1ccc(OC(F)(F)Cl)cc1", "% Inhibition @ 10 uM": 0.475}
{"smiles": "CC(=O)c1cccc(NC(=O)COc2cc(C)ccc2C(C)C)c1", "% Inhibition @ 10 uM": 0.035}
{"smiles": "COC(=O)c1ccccc1NC(=O)c1ccc(F)cc1", "% Inhibition @ 10 uM": -6.68}
{"smiles": "CN(C)c1ccc(C2NC(=O)NC(O)(C(F)(F)F)C2C(=O)c2ccccc2)cc1", "note": "(stereo not shown)", "% Inhibition @ 10 uM": 5.29}
{"smiles": "COc1ccc2c(CNCc3ccco3)c(C(=O)O)n(Cc3ccccc3F)c2c1", "% Inhibition @ 10 uM": -8.18}
{"smiles": "CCOc1ccc(-c2cn3c(n2)sc2cc(C(=O)N4CCCCCC4)ccc23)cc1", "% Inhibition @ 10 uM": 17.2}
{"smiles": "CCOC(=O)c1cnn(-c2ccc(C)cc2)c1C1CCN(C(=O)OC(C)(C)C)CC1", "% Inhibition @ 10 uM": -1.03}
{"smiles": "CC(NC(=O)CSc1nc(N)cc(N)n1)c1ccccc1", "note": "(stereo not shown)", "% Inhibition @ 10 uM": -9.93}
{"smiles": "CSc1nc(Oc2ccc(Cl)cc2)cc(-n2nc(C)c(C#N)c2N)n1", "% Inhibition @ 10 uM": -0.725}
{"smiles": "COc1ccc(CNC(=O)CN(c2c(C)cccc2C)S(C)(=O)=O)cc1", "% Inhibition @ 10 uM": -2.83}
{"smiles": "COc1ccc(CCC(C)NC2CCCCC2C)cc1", "note": "(stereo not shown)", "% Inhibition @ 10 uM": 3.19}
{"smiles": "COc1ccc2occ(C(C)N)c2c1", "note": "(stereo not shown)", "% Inhibition @ 10 uM": 0.847}
{"smiles": "O=S(=O)(c1ccc(-c2cc(C(F)(F)F)no2)s1)N1CCc2ccccc2C1", "% Inhibition @ 10 uM": -0.518}
{"smiles": "Cc1ccc(-n2nc3c(c2NC(=O)c2cccc(Cl)c2)CS(=O)(=O)C3)cc1", "% Inhibition @ 10 uM": 5.9}
{"smiles": "COc1ccccc1Cn1c(CO)nc2ccccc21", "% Inhibition @ 10 uM": -0.425}
{"smiles": "COc1ccc(Cl)cc1NC(=O)CC(NCCN)C(=O)O", "note": "(stereo not shown)", "% Inhibition @ 10 uM": 5.17}
{"smiles": "O=C(COc1ccc(Cl)cc1Cl)Nc1ccc(F)cc1", "% Inhibition @ 10 uM": -3.82}
{"smiles": "COCCCNC(=O)c1csc2c1CCC(C)C2", "note": "(stereo not shown)", "% Inhibition @ 10 uM": 1.93}
{"smiles": "CCC(C)n1c(=O)c2sccc2n2c(CCCC(=O)NCc3ccc4c(c3)OCO4)nnc12", "note": "(stereo not shown)", "% Inhibition @ 10 uM": -7.18}
{"smiles": "NC(=O)c1ccc(NC(=O)CCc2ccccc2)cc1", "% Inhibition @ 10 uM": -3.23}
{"smiles": "CS(=O)(=O)N(CC(=O)NCCc1ccccc1)c1cccc(F)c1", "% Inhibition @ 10 uM": -2.21}
{"smiles": "CCc1ccc(C2CC(=O)NC3=C2C(=O)CC(c2ccc(F)cc2)C3)cc1", "note": "(stereo not shown)", "% Inhibition @ 10 uM": -5.47}
{"smiles": "O=C1OC(c2ccc(Cl)cc2)=N/C1=C\\c1cc(Br)ccc1F", "% Inhibition @ 10 uM": 6.4}
{"smiles": "COc1ccc(C2C(C#N)=C(N)Oc3cc(C)n(Cc4cccnc4)c(=O)c32)cc1OC", "note": "(stereo not shown)", "% Inhibition @ 10 uM": 2.68}
{"smiles": "COC(=O)c1ccc(-c2ccc(CNCCSc3nnnn3C)o2)cc1", "% Inhibition @ 10 uM": -3.49}
{"smiles": "CC(C)OCCCNC(=O)c1cc(-c2ccc(Cl)s2)nc2ccccc12", "% Inhibition @ 10 uM": -2.49}
{"smiles": "c1ccc(CSc2n[nH]c3nc4ccccc4n23)cc1", "% Inhibition @ 10 uM": 2.9}
{"smiles": "CC(=O)N1CCC(=O)N(C(C)C)c2ccccc21", "% Inhibition @ 10 uM": 6.29}
{"smiles": "Cc1n[nH]c(C)c1CCCCCOc1ccccc1Cl", "% Inhibition @ 10 uM": -3.42}
{"smiles": "COc1ccc(N2CCN(Cc3cccnc3)CC2)cc1", "% Inhibition @ 10 uM": 1.48}
{"smiles": "CC(C)N(Cc1ccccc1)C(=O)c1ccccc1Cl", "% Inhibition @ 10 uM": 1.38}
{"smiles": "COc1cccc2cc(-c3csc(NC(=O)CCC(=O)N4CCc5ccccc5C4)n3)c(=O)oc12", "% Inhibition @ 10 uM": -1.5}
{"smiles": "Cc1ccc2oc(-c3cccc(NC(=O)c4ccccc4F)c3C)nc2c1", "% Inhibition @ 10 uM": -4.01}
{"smiles": "O=C(CS(=O)(=O)c1cn(CC(=O)N2CCCCCC2)c2ccccc12)NCC1CCCO1", "note": "(stereo not shown)", "% Inhibition @ 10 uM": -3.43}
{"smiles": "Cc1ccc(C(=O)N2N=C3c4ccccc4S(=O)(=O)N3C2N2CCCCC2)cc1", "note": "(stereo not shown)", "% Inhibition @ 10 uM": -3.21}
{"smiles": "O=C(/C=C/c1ccccc1Cl)NCC1CCCO1", "note": "(stereo not shown)", "% Inhibition @ 10 uM": 5}
{"smiles": "Nc1cc(=O)nc(SCC(=O)Nc2nncs2)n1CCc1ccccc1", "% Inhibition @ 10 uM": 6.73}
{"smiles": "Cn1c(=O)[nH]c(=O)c2c1nc1n2CC(O)CN1c1cccc2ccccc12", "note": "(stereo not shown)", "% Inhibition @ 10 uM": 1.15}
{"smiles": "CC(C)c1ccc(-c2c(NC3CCCCC3)c(=O)c2=O)cc1", "% Inhibition @ 10 uM": -1.98}
{"smiles": "O=C(NCCCN1CCOCC1)c1cc(-c2ccc3c(c2)OCO3)on1", "% Inhibition @ 10 uM": -5.77}
{"smiles": "Cc1ccc(CNCc2c(C(=O)O)n(Cc3ccc(F)cc3)c3ccccc23)cc1", "% Inhibition @ 10 uM": -6.89}
{"smiles": "CCOc1ccc(C2C(C#N)=C(N)Oc3cc(C)oc(=O)c32)cc1", "note": "(stereo not shown)", "% Inhibition @ 10 uM": -1.29}
{"smiles": "Cc1nc2nc(C)c(CCC(=O)NCCc3ccc(Cl)cc3)c(C)n2n1", "% Inhibition @ 10 uM": -2.25}
{"smiles": "CC(C)C[C@H](NC(=O)c1ccc(-c2csc(N=C(N)N)n2)cc1)C(=O)N[C@@H](CCCN=C(N)N)C(=O)O", "% Inhibition @ 10 uM": -2.35}
{"smiles": "Cc1ccc(-c2n[nH]c3c2C(C)C(C#N)=C(N)O3)cc1", "note": "(stereo not shown)", "% Inhibition @ 10 uM": -6.92}
{"smiles": "COc1cc(C2CC(=O)Nc3c2c(C)nn3-c2nc3ccccc3s2)ccc1O", "note": "(stereo not shown)", "% Inhibition @ 10 uM": 2.25}
{"smiles": "CCOC(=O)C1=C(C)N(Cc2ccccc2)C(=O)C1CC(=O)O", "note": "(stereo not shown)", "% Inhibition @ 10 uM": -1.06}
{"smiles": "O=S(=O)(Nc1cccc(F)c1)c1ccc(-c2ccccc2)cc1", "% Inhibition @ 10 uM": 3}
{"smiles": "O=C1C2C3CCC(O3)C2C(=O)N1c1ccc(Cl)cn1", "note": "(stereo not shown)", "% Inhibition @ 10 uM": -0.999}
{"smiles": "CCc1ccc(CNC(=O)CN(C)c2nn3c(=O)cc(C)nc3s2)cc1", "% Inhibition @ 10 uM": 4.55}
{"smiles": "Cc1ccccc1OC1=NS(=O)(=O)c2ccccc21", "% Inhibition @ 10 uM": 0.343}
{"smiles": "Cc1ccc(CNC(=O)c2cnccn2)cc1", "% Inhibition @ 10 uM": 0.795}
{"smiles": "Cn1c(=O)c2sccc2n2c(CCCC(=O)N3CCN(C(=O)c4ccco4)CC3)nnc12", "% Inhibition @ 10 uM": -0.212}
{"smiles": "CC1(C)CC(=O)c2cnc(NCCc3ccccc3)nc2C1", "% Inhibition @ 10 uM": 3.87}
{"smiles": "O=S(=O)(NCCN(Cc1ccco1)C1CCCC1)c1ccc(-c2cc(C(F)(F)F)no2)s1", "% Inhibition @ 10 uM": -3.07}
{"smiles": "O=C(Nc1c2c(nn1-c1cccc(Cl)c1)CS(=O)(=O)C2)c1ccc(C(=O)c2ccccc2)cc1", "% Inhibition @ 10 uM": -0.967}
{"smiles": "Cn1c(=O)c2c(ncn2CC(=O)NCc2ccccc2)n(C)c1=O", "% Inhibition @ 10 uM": -1.38}
{"smiles": "COc1ccccc1-c1nnc2sc(/C=C/c3ccccc3)nn12", "% Inhibition @ 10 uM": 6.01}
{"smiles": "COc1ccc(NC(=O)CSCc2cccc(Br)c2)cc1", "% Inhibition @ 10 uM": -0.0217}
{"smiles": "O=C1CCN(C(=O)c2cccs2)c2ccccc21", "% Inhibition @ 10 uM": 0.317}
